# PubChem BioAssay AID1347165 (National Center for Advancing Translational Sciences (NCATS), 2019)
# Out of some 220,000 compounds screened, about 5,700 (2.6%) were called active. Inconclusive results, whose numbers are uncertain, are shown with a selection of clear calls. The call rests on the fitted dose curve; in most records, active means well fitted inhibition curve with a large enough effect; inconclusive means small, poorly fitted or top-dose-only effect; inactive means no such curve, though single readings can be large or run the other way. Potencies beside an inconclusive call are fits to weak or partial responses and may not hold up.
# Biological target: Lysine-specific demethylase 5B (Homo sapiens) (UniProt Q9UGL1)
# Chain of UniProt Q9UGL1 (Q9UGL1 whole entry, looked up): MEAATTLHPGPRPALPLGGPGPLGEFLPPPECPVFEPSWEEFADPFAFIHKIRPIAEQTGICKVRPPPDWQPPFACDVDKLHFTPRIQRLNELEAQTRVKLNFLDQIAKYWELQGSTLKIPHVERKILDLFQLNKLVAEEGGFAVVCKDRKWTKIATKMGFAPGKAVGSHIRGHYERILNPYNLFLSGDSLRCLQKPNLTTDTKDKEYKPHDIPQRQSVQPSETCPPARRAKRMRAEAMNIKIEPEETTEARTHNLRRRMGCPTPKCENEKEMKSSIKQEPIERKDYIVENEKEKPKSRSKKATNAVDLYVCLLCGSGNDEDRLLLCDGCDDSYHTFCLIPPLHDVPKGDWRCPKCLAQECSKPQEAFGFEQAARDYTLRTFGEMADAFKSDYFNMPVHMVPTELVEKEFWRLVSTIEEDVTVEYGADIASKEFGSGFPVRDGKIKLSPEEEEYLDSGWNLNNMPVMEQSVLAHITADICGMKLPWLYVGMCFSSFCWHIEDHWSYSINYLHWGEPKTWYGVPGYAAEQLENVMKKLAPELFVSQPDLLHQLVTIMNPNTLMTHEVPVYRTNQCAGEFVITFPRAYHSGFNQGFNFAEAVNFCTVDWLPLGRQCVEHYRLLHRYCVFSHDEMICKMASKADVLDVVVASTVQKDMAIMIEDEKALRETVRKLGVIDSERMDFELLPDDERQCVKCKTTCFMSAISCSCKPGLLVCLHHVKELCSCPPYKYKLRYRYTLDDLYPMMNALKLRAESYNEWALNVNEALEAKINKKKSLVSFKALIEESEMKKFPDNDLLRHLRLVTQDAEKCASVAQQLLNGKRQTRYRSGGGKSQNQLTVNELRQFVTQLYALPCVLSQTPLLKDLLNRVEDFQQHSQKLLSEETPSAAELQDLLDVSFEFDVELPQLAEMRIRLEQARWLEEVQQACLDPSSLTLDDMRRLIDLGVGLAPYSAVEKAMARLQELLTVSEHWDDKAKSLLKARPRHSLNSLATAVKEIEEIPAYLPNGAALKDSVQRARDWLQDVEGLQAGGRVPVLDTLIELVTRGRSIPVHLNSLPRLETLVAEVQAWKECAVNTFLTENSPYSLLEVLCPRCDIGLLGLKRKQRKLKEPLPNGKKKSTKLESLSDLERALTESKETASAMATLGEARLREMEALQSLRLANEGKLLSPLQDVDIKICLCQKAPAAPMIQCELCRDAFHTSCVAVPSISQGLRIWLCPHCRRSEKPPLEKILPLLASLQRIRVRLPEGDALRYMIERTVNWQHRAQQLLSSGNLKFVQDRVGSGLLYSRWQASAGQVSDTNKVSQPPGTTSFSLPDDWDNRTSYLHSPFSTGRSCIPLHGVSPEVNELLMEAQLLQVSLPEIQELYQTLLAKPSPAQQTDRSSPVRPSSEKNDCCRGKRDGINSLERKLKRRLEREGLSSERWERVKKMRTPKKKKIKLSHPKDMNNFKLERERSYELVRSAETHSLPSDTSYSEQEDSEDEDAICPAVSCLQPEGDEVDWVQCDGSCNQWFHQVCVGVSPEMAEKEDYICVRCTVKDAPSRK
# Experiment: Primary screen for KDM5B Histone Demethylases FDH-coupled qHTS; further: nearly all actives have a fitted effect of over 70% in size; on activity change, negative = inhibition: 0% is about no effect
# Details: FDH-coupled NADH fluorescence (FDH is formaldehyde dehydrogenase); activity change, negative = inhibition: at 57.7 µM (top of the series) unless noted
# Method in brief: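 qHTS format, multiple compound concentrations. Buffer 50 mM HEPES pH 7.5/0.01% Tween-20; 200 nM KDM5BΔAP final; 10 min compound preincubation; substrate-mix levels 12.5 µM peptide, 25 µM α-KG, 0.25 mM NAD⁺; 30 min RT; ΔRFU.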
# Potency means the concentration at half of the fitted maximal effect; tags describe the fitted curve by direction and shape.
SMILES,Potency,"activity change, negative = inhibition"
COc1ccccc1N1CCN(S(=O)(=O)c2ccc3c(c2)oc(=O)n3C)CC1,"inconclusive: 14.1 µM [inhibitor, partial curve, poor fit]",–
CCCSCCCNC(=O)C1CCN(C(=O)c2cc3sccc3n2C)CC1,"inconclusive: 15.8 µM [inhibitor, partial curve, poor fit]",–
CCCn1nc(C(=O)Nc2nc(-c3ccc(NC(C)=O)cc3)cs2)c2ccccc2c1=O,"inconclusive: 28.2 µM [inhibitor, partial curve, poor fit]",–
CSCc1ccc(C(=O)Nc2ccc3c(c2)NC(=O)CS3)cc1,–,inactive: -7.97%
Cc1c(C(=O)O)sc2nc(/C=C/c3cccc(O)c3)[nH]c(=O)c12,"inconclusive: 22.4 µM [inhibitor, single point]",–
Cc1ccccc1Cn1c(SCc2ccc(C(=O)NCc3cccs3)cc2)nc2ccncc21,"inconclusive: 44.7 µM [inhibitor, single point]",–
CN(C)C(=O)CC(O)c1cc2n(n1)CCN(C/C=C/c1ccccc1)C2 (stereo not given),"inconclusive: 31.6 µM [inhibitor, single point]",–
NC(=O)c1cc(Cc2ccccc2)sc1NC(=O)c1ccncc1,"inconclusive: 35.5 µM [inhibitor, partial curve, poor fit]",–
Cc1cccc(OCc2nnc(SCC(=O)Nc3ccc(C)cc3C)o2)c1,–,inconclusive: -33.5% [inhibitor]
CC1Oc2ccc(NC(=O)c3ccc4c(c3)OCO4)cc2CN(Cc2ccccc2)C1=O (stereo not given),"inconclusive: 31.6 µM [inhibitor, single point]",–
C=CCn1c(CN2CCC3(CC(=O)NC3=O)C2)nc2ccccc21 (stereo not given),"inconclusive: 28.2 µM [inhibitor, partial curve, poor fit]",–
CCOc1ccc(C(=O)c2cn(CC(=O)Nc3cc(OC)cc(OC)c3)c3ccc(F)cc3c2=O)cc1,–,inconclusive: -35.8% [inhibitor]
CC(Nc1ccc(F)cc1)c1nc(-c2ccco2)no1 (stereo not given),–,inactive: 8.41%
O=C(c1ccc(Cl)nc1)N1CCN(c2nc3ncccc3o2)CC1,"inconclusive: 35.5 µM [inhibitor, single point]",–
Cc1cccc(NC(=O)Cn2c(=O)n(Cc3ccc(C(=O)NCc4ccc5c(c4)OCO5)cc3)c(=O)c3ccccc32)c1,"inconclusive: 17.8 µM [inhibitor, partial curve, poor fit]",–
O=C(Nc1cc(F)cc(F)c1)c1ccc2ccccc2n1,"inconclusive: 31.6 µM [inhibitor, single point]",–
COc1ccc(-c2nc(C)nc3c2CCN(Cc2ccnn2C)CC3)cc1,active: 20 µM,–
CC(C)Oc1ccc(-c2noc(Cn3cnc4c(oc5ccccc54)c3=O)n2)cc1,–,inactive: -2.27%
CN1CC(=O)N(c2ccc([N+](=O)[O-])cc2)Cc2c1ncnc2N1CCOCC1,"inconclusive: 35.5 µM [inhibitor, partial curve, poor fit]",–
C#CCN(CC)CC(=O)NCc1cccs1,–,inactive: 18.6%

SMILES,Potency,"activity change, negative = inhibition"
O=C(/C=C/c1ccc(O)cc1)c1ccsc1,"inconclusive: 39.8 µM [inhibitor, single point]",–
CCN(Cc1cccs1)C(=O)c1cccc(C#N)c1,–,inactive: -15.7%
COc1ccc(OC)c(NC(=O)Cn2cc(S(=O)(=O)c3ccccc3)c(=O)c3cc(C)ccc32)c1,"inconclusive: 31.6 µM [inhibitor, single point]",–
O=C1NCCN2CC3(CCN(C(=O)C4(c5ccccc5)CC4)CC3)CC12 (stereo not given),"inconclusive: 12.6 µM [inhibitor, partial curve]",–
CCCc1cc(=O)oc2cc(OS(=O)(=O)c3cccc(C#N)c3)ccc12,"inconclusive: 22.4 µM [inhibitor, partial curve, poor fit]",–
Cc1ccc(NC(=O)C2CCCCC2)c(C)c1,–,inactive: 13.5%
Cc1ccc(-c2cccc(C(=O)N3CC[C@](C)(O)[C@H](C)C3)c2)o1,"inconclusive: 17.8 µM [inhibitor, partial curve, poor fit]",–
Cc1nn(CCc2nc(-c3ccccc3)cs2)c2[nH]c(=O)cc(C(F)(F)F)c12,"inconclusive: 14.1 µM [inhibitor, partial curve, poor fit]",–
CN(C)C(=O)c1nc(-c2ccc(Cl)nc2)c2ccccn12,active: 112 µM,–
Cc1ccc(NC(=O)CN(C)C(=O)COc2cccc3ccc(C)nc23)cc1,"inconclusive: 22.4 µM [inhibitor, single point]",–
CC(=O)c1cccc(NC(=O)CCc2c(C)nc3c(-c4ccc(F)cc4)c(C)nn3c2C)c1,"inconclusive: 1 µM [inhibitor, full curve, poor fit]",–
O=C(CC1CCc2ccccc21)N1CCCN(c2ncccn2)CC1 (stereo not given),"inconclusive: 31.6 µM [inhibitor, single point]",–
COC(=O)C1=C(C)N(C)C(C)=C(C(=O)OC)C1c1ccc(C)s1,"inconclusive: 17.8 µM [inhibitor, partial curve, poor fit]",–
N#Cc1ccc(CN2CCCC(c3nc(-c4cccnc4)no3)CCNC(=O)CC2)cc1 (stereo not given),"inconclusive: 35.5 µM [inhibitor, single point]",–
O=C(c1ccc(N2CC3CC(C2)[C@H]2CCCC(=O)N2C3)nc1)N1CCC(N2CCCCC2)CC1 (stereo not given in full),"inconclusive: 31.6 µM [inhibitor, single point]",–
Cc1nc(-c2ccc(Cl)cc2)sc1CCNC(=O)c1ccco1,"inconclusive: 31.6 µM [inhibitor, partial curve, poor fit]",–
CN(C)C(=O)c1ccc(CNC(=O)c2nccnc2N)cc1,"inconclusive: 25.1 µM [inhibitor, partial curve, poor fit]",–
Cc1ccc(O)c(-c2ccnc3cc(-c4ccc(Cl)cc4)nn23)c1,"inconclusive: 15.8 µM [inhibitor, partial curve, poor fit]",–
COc1ccc2[nH]c3c(c2c1)CCNC31CCN(C(=O)CN2CCCC2=O)CC1,"inconclusive: 28.2 µM [inhibitor, partial curve, poor fit]",–
COc1cc(-c2nc3sccn3c2Nc2cccc(C)c2)ccc1O,"inconclusive: 28.2 µM [inhibitor, partial curve, poor fit]",–
